Results published in PMC6230555.
Results are given in words; binding and its absence hold for the method and conditions named. In cells and extracts the contact can be indirect. Some binding calls cover weakened binding; strength is not graded here. For some assays here: Where a sequence is shown, tags or fusion partners need not be part of it.

By UniProt entry, the sequences of proteins in these tests, tags left out.
UniProt Q3LS21: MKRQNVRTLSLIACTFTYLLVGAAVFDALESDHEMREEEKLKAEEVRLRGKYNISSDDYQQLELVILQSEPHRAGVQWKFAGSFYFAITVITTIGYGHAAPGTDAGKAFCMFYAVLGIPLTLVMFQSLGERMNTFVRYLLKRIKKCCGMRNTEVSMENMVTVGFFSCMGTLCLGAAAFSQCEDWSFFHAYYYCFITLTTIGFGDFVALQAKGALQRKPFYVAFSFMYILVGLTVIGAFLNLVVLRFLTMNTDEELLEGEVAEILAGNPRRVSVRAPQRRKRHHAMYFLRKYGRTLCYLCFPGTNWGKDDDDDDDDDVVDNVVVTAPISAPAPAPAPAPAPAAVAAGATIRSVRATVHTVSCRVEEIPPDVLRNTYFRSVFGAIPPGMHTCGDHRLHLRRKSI

Legend:
[1] = biological target: VN-TASK-3 (mouse TASK-3 fused to the N-terminal half of split Venus) (mouse) (UniProt Q3LS21); test: split reporter; BiFC with split Venus (VN173/VC155) fusions co-transfected into COS-7 cells with DsRed-Mem; fixed with 4% paraformaldehyde the following day; Venus fluorescence by confocal microscopy
[2] = biological target: Flag-TASK-3 (Flag-tagged mouse TASK-3) (mouse) (UniProt Q3LS21); test: co-IP; HEK293T cells co-transfected with HA-TWIK-1 and Flag-TASK-3; RIPA lysate; immunoprecipitation with anti-FLAG antibody and Protein G agarose at 4 °C; blot with anti-HA
[3] = biological target: endogenous TASK-3 in mouse dentate gyrus granule cells (mouse (endogenous in hippocampal DGGCs)) (UniProt Q3LS21); test: proximity ligation; Duolink PLA on frozen hippocampal sections of mice with antibodies to TASK-3 (rabbit) and TWIK-1 (goat); DGGCs infected with Ad-Sc shRNA or knock-down shRNA

| Molecule | binding [1] | other results |
| --- | --- | --- |
| VN-TASK-3 (mouse TASK-3 fused to the N-terminal half of split Venus) (from UniProt Q3LS21 1-402) | binds |  |
| TWIK-1-VC (mouse TWIK-1 fused to the C-terminal half of split Venus) (protein, UniProt O08581 1-336) MLQSLAGSSCVRLVERHRSAWCFGFLVLGYLLYLVFGAVVFSSVELPYEDLLRQELRKLKRRFLEEHECLSEPQLEQFLGRVLEASNYGVSVLSNASGNWNWDFTSALFFASTVLSTTGYGHTVPLSDGGKAFCIIYSVIGIPFTLLFLTAVVQRVTVHVTRRPVLYFHIRWGFSKQVVAIVHAVLLGFVTVSCFFFIPAAVFSVLEDDWNFLESFYFCFISLSTIGLGDYVPGEGYNQKFRELYKIGITCYLLLGLIAMLVVLETFCELHELKKFRKMFYVKKDKDEDLVHIMEHDQLSFSSVTEQVAGLKEEQKQSEPFVASQSPPYEDGSADH | binds |  |
| HA-TWIK-1 (hemagglutinin-tagged mouse TWIK-1) (protein, UniProt O08581 1-336) MLQSLAGSSCVRLVERHRSAWCFGFLVLGYLLYLVFGAVVFSSVELPYEDLLRQELRKLKRRFLEEHECLSEPQLEQFLGRVLEASNYGVSVLSNASGNWNWDFTSALFFASTVLSTTGYGHTVPLSDGGKAFCIIYSVIGIPFTLLFLTAVVQRVTVHVTRRPVLYFHIRWGFSKQVVAIVHAVLLGFVTVSCFFFIPAAVFSVLEDDWNFLESFYFCFISLSTIGLGDYVPGEGYNQKFRELYKIGITCYLLLGLIAMLVVLETFCELHELKKFRKMFYVKKDKDEDLVHIMEHDQLSFSSVTEQVAGLKEEQKQSEPFVASQSPPYEDGSADH |  | binding [2]: binds |
| endogenous TWIK-1 in mouse dentate gyrus granule cells (protein, UniProt O08581 1-336) MLQSLAGSSCVRLVERHRSAWCFGFLVLGYLLYLVFGAVVFSSVELPYEDLLRQELRKLKRRFLEEHECLSEPQLEQFLGRVLEASNYGVSVLSNASGNWNWDFTSALFFASTVLSTTGYGHTVPLSDGGKAFCIIYSVIGIPFTLLFLTAVVQRVTVHVTRRPVLYFHIRWGFSKQVVAIVHAVLLGFVTVSCFFFIPAAVFSVLEDDWNFLESFYFCFISLSTIGLGDYVPGEGYNQKFRELYKIGITCYLLLGLIAMLVVLETFCELHELKKFRKMFYVKKDKDEDLVHIMEHDQLSFSSVTEQVAGLKEEQKQSEPFVASQSPPYEDGSADH |  | binding [3]: binds |
| GIRK1-VC (GIRK1 K+ channel fused to the C-terminal half of split Venus) (protein, UniProt P63250 1-501) MSALRRKFGDDYQVVTTSSSGSGLQPQGPGQGPQQQLVPKKKRQRFVDKNGRCNVQHGNLGSETSRYLSDLFTTLVDLKWRWNLFIFILTYTVAWLFMASMWWVIAYTRGDLNKAHVGNYTPCVANVYNFPSAFLFFIETEATIGYGYRYITDKCPEGIILFLFQSILGSIVDAFLIGCMFIKMSQPKKRAETLMFSEHAVISMRDGKLTLMFRVGNLRNSHMVSAQIRCKLLKSRQTPEGEFLPLDQLELDVGFSTGADQLFLVSPLTICHVIDAKSPFYDLSQRSMQTEQFEVVVILEGIVETTGMTCQARTSYTEDEVLWGHRFFPVISLEEGFFKVDYSQFHATFEVPTPPYSVKEQEEMLLMSSPLIAPAITNSKERHNSVECLDGLDDISTKLPSKLQKITGREDFPKKLLRMSSTTSEKAYSLGDLPMKLQRISSVPGNSEEKLVSKTTKMLSDPMSQSVADLPPKLQKMAGGPTRMEGNLPAKLRKMNSDRFT | no binding |  |
